Test results reported in paper PMC2650728.
These are yes or no findings as the source states them, for the method shown. Binding seen in cells or lysates may run through a third protein. Some entries that bind do so weakly or less than the wild type. Where a sequence is shown, tags or fusion partners need not be part of it.

T1: Stt7 containing a haemagglutinin (HA)-tag at its C-terminal end (Stt7-HA) (Chlamydomonas reinhardtii) (UniProt Q84V18)
T1 sequence: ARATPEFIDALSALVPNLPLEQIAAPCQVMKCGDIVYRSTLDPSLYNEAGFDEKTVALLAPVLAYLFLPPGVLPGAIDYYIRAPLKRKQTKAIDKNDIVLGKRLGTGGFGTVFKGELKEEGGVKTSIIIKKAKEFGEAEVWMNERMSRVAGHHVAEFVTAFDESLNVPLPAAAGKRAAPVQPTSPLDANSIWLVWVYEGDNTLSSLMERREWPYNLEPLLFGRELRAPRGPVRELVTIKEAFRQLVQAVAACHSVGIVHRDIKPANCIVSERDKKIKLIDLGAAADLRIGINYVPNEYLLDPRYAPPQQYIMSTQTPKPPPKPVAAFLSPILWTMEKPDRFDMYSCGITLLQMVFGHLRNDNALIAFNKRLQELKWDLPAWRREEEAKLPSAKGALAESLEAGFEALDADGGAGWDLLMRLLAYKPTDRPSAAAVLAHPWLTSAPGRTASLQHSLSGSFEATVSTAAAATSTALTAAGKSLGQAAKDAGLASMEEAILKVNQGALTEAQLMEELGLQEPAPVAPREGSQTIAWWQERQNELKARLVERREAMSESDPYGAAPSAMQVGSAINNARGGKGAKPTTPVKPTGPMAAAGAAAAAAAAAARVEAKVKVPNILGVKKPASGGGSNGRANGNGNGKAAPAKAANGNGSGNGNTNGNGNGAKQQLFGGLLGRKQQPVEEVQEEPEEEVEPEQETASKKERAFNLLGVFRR

T2: Stt7-HA-C68S (Chlamydomonas reinhardtii) (UniProt Q84V18)
T2 sequence: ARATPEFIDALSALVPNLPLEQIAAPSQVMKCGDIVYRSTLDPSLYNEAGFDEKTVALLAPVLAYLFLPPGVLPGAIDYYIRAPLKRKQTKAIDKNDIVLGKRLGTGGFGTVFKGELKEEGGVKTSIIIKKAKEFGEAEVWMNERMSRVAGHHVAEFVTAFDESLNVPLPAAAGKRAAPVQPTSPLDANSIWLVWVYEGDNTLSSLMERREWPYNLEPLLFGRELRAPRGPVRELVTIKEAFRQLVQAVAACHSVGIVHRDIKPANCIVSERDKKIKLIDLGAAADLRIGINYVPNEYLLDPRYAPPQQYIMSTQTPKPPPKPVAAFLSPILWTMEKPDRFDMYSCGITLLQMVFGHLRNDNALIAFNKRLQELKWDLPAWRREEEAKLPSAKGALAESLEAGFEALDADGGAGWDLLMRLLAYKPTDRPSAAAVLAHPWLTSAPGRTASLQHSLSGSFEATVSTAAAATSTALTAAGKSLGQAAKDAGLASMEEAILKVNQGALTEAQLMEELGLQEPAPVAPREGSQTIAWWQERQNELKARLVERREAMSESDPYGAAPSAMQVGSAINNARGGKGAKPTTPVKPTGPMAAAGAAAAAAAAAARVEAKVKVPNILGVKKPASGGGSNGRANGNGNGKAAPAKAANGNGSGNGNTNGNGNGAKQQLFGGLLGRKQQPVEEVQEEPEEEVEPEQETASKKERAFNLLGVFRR


Tests used:
[1] = molecular target: T1, Stt7 containing a haemagglutinin (HA)-tag at its C-terminal end (Stt7-HA) (Chlamydomonas reinhardtii); test: co-IP; thylakoid membranes (0.8 mg/ml) solubilized with n-dodecyl-β-maltoside, anti-HA-affinity matrix overnight at 4 °C, five washes in TBS-BSA (100 mM Tris/HCl pH 7.5, 150 mM NaCl, 0.05% BSA), immunoblot of the precipitate; Figure 3A with cells in state 1 or state 2, Figure 6C state not told
[2] = molecular target: T1, Stt7 containing a haemagglutinin (HA)-tag at its C-terminal end (Stt7-HA) (Chlamydomonas reinhardtii); test: co-IP; as a1, thylakoid membranes from Stt7-HA cells in state 1 only, precipitated with HA antiserum
[3] = molecular target: T2, Stt7-HA-C68S (Chlamydomonas reinhardtii); test: co-IP; thylakoid membranes (0.8 mg/ml) solubilized with n-dodecyl-β-maltoside, anti-HA-affinity matrix overnight at 4 °C, five washes in TBS-BSA (100 mM Tris/HCl pH 7.5, 150 mM NaCl, 0.05% BSA), immunoblot of the precipitate; Figure 3A with cells in state 1 or state 2, Figure 6C state not told
[4] = substrate: PSI subunit PsaA (Chlamydomonas reinhardtii (endogenous)) (UniProt P12154); test: co-IP; reciprocal: solubilized thylakoid membranes from the Stt7-HA strain precipitated with antibodies against the thylakoid proteins, immunoblotted with HA antibodies

binding [1]	binding [3]	Molecule	other results
binds		PSI subunit PsaA (from UniProt P12154 1-751)	
	binds	cytochrome f (from UniProt P23577 32-317)	

The remaining lines, values behind:

Molecule	binding [1]	binding [3]	other results
CP29 (from UniProt Q93WD2 1-280)	binds		binding [2]: no binding (condition: cells in state 1)
subunit α of ATP synthase (from UniProt P26526 1-508)	no binding		
Stt7 containing a haemagglutinin (HA)-tag at its C-terminal end (Stt7-HA) (enzyme, UniProt Q84V18 42-754) ARATPEFIDALSALVPNLPLEQIAAPCQVMKCGDIVYRSTLDPSLYNEAGFDEKTVALLAPVLAYLFLPPGVLPGAIDYYIRAPLKRKQTKAIDKNDIVLGKRLGTGGFGTVFKGELKEEGGVKTSIIIKKAKEFGEAEVWMNERMSRVAGHHVAEFVTAFDESLNVPLPAAAGKRAAPVQPTSPLDANSIWLVWVYEGDNTLSSLMERREWPYNLEPLLFGRELRAPRGPVRELVTIKEAFRQLVQAVAACHSVGIVHRDIKPANCIVSERDKKIKLIDLGAAADLRIGINYVPNEYLLDPRYAPPQQYIMSTQTPKPPPKPVAAFLSPILWTMEKPDRFDMYSCGITLLQMVFGHLRNDNALIAFNKRLQELKWDLPAWRREEEAKLPSAKGALAESLEAGFEALDADGGAGWDLLMRLLAYKPTDRPSAAAVLAHPWLTSAPGRTASLQHSLSGSFEATVSTAAAATSTALTAAGKSLGQAAKDAGLASMEEAILKVNQGALTEAQLMEELGLQEPAPVAPREGSQTIAWWQERQNELKARLVERREAMSESDPYGAAPSAMQVGSAINNARGGKGAKPTTPVKPTGPMAAAGAAAAAAAAAARVEAKVKVPNILGVKKPASGGGSNGRANGNGNGKAAPAKAANGNGSGNGNTNGNGNGAKQQLFGGLLGRKQQPVEEVQEEPEEEVEPEQETASKKERAFNLLGVFRR			binding [4]: binds
Rieske protein (protein, UniProt P49728 30-206) AAASSEVPDMNKRNIMNLILAGGAGLPITTLALGYGAFFVPPSSGGGGGGQAAKDALGNDIKAGEWLKTHLAGDRSLSQGLKGDPTYLIVTADSTIEKYGLNAVCTHLGCVVPWVAAENKFKCPCHGSQYNAEGKVVRGPAPLSLALAHCDVAESGLVTFSTWTETDFRTGLEPWWA		binds	
